# Reference: PubChem BioAssay AID2546 (National Center for Advancing Translational Sciences (NCATS), 2010)
# Values joined by “and” are separate entries in the source; they are usually repeats but may differ in a detail not shown here. Equal entries are not always repeated. Screen size: about 310,000 compounds; about 11,000 (3.5%) were called active. Inconclusive results, whose numbers are uncertain, are shown with a selection of clear calls. Calls come from the whole dose curve; as a rule, active = well fitted inhibition curve with a large enough effect; inconclusive = small, poorly fitted or top-dose-only effect, or effect the other way; inactive = flat fitted curve, though single readings scatter. A potency beside an inconclusive call is a rough fit, not a confirmed value.
# Test: VP16 counterscreen qHTS for inhibitors of ROR gamma transcriptional activity;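 note: Gal4-VP16 expression switched on by copper sulfate through the metallothionein promoter; nearly all actives have a fitted effect of over 50% in size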
# Conditions: Drosophila S2 Gal4-VP16 UAS-luciferase, luminescence, 20 h; activity, negative = inhibition: at 53.6 µM (top of the series)
# % is set by controls: 0 for no effect and ±100 for the full control effect; potency is the fitted concentration of half-maximal effect; tags give direction and shape of the fitted curve.
SMILES,Potency,"activity, negative = inhibition"
COc1ccc(C2=NN(C(C#N)c3ccc(OC)cc3)C(c3ccccc3)C2)cc1 (stereo not drawn),"inconclusive: 3.98 µM [activator, single point]",–
COc1ccc(Nc2nc(N)nc(CSC(=S)N3CCC(C)CC3)n2)cc1,"inconclusive: 31.6 µM [inhibitor, single point]",–
COc1cc(/C=C2\C(=O)ON=C2c2ccccc2)cc(Br)c1O,"inconclusive: 35.5 µM [inhibitor, single point]",–
O=C(Nc1cccc(C(F)(F)F)c1)N1CCC(c2nc(-c3ccc(F)cc3)no2)CC1,"inconclusive: 11.2 µM [inhibitor, partial curve, poor fit]",–
C=CCNC(=O)CN1CCC(NC(=O)c2ccco2)CC1,inactive,–
COc1cc2c(cc1OC)C1O[C@](CCCCN3C(=O)c4ccccc4C3=O)(C2)OC2=C1C(=O)OC1(CCCCC1)C2,–,inactive: -4.09% [at 10 µM]
O=C(N=Nc1c(O)[nH]c2ccccc12)c1cc(-c2ccc(F)cc2)n[nH]1,inactive,–
Cc1cc2ncn(CC(C)C)c2cc1C,"inconclusive: 20 µM [inhibitor, single point]",–
O=C(CSc1cccc2cccnc12)OCC(=O)c1ccc(Br)cc1,inactive,–
Cc1noc(C)c1-c1cncnc1Nc1ccccc1,inactive,–
COc1cc(O)ccc1/C=N/NC(=O)c1ccc([N+](=O)[O-])cc1,"inconclusive: 35.5 µM [inhibitor, single point]",–
CCS(=O)(=O)c1c([N+](=O)[O-])ncn1C,active: 10 µM,–
CCOC(=O)C1CCN(c2c(NC3CCCc4ccccc43)c(=O)c2=O)CC1 (stereo not drawn),inactive,–
COC(=O)/C=C1\N/C(=N/c2nc(C)c3cc(OC)ccc3n2)NC1=O,"inconclusive: 25.1 µM [inhibitor, single point]",–
NC(=O)CC[C@@H]1NC(=O)[C@H](Cc2ccccc2)NC(=O)[C@H](Cc2ccc(O)cc2)NC(=O)[C@@H](N)CSSC[C@@H](C(=O)N2CCC[C@H]2C(=O)N[C@@H](CCCN=C(N)N)C(=O)NCC(N)=O)NC(=O)[C@H](CC(N)=O)NC1=O,"inconclusive: 6.31 µM [inhibitor, single point]",–
CCOC(=O)c1ccc(CNC(=O)CSc2nnc(-c3ccncc3)o2)cc1,"inconclusive: 5.62 µM [activator, single point]",–
COc1ccccc1OCc1ccc(C(=O)Nc2ccc(Cl)cn2)o1,"inconclusive: 35.5 µM [activator, single point]",–
O=C(NCC1CCN(c2ccc(S(=O)(=O)N3CCOCC3)cc2)CC1)c1ccc(Cl)cc1,"inconclusive: 35.5 µM [inhibitor, single point]",–
CCOc1ccc(S(=O)(=O)N2CCN(C(=O)c3ccco3)CC2)cc1,inactive,–
Cc1ccc(C(=O)NC(=S)NNS(=O)(=O)c2ccccc2)cc1,active: 14.1 µM,–
O=C(Nc1nnc(-c2ccccc2Cl)o1)c1ccco1,active: 5.01 µM,–
Cc1ccc(O)c(/C=N/NC(=O)c2[nH]ncc2Br)c1,active: 1.26 µM,–
COc1ccc(-n2c(=S)[nH]c3c(oc4ccccc43)c2=O)cc1,active: 4.47 µM,–
Cc1cccc(C(=O)NNC(=O)c2cccc([N+](=O)[O-])c2)c1,inactive,–
CCn1c(=O)cc(C(=O)OC)sc1=Nc1ccc(F)c(F)c1,"inconclusive: 35.5 µM [inhibitor, single point]",–

SMILES,Potency,"activity, negative = inhibition"
COc1cc2[nH]c3c(=O)n4c(nc3c2cc1OC)SCCC4,"inconclusive: 10 µM [activator, partial curve]",–
Cc1ccc(-n2c(=O)c3sccc3n(Cc3cc(=O)n4cc(Cl)ccc4n3)c2=O)cc1F,inactive,–
O=C(N/C=N/OCc1ccc(Cl)cc1Cl)NOCc1c(Cl)cccc1Cl,"inconclusive: 35.5 µM [inhibitor, single point]",–
COc1ccccc1Cn1c(=O)oc2ccc(C)cc21,inactive,–
Cc1cccc(N(C(=O)c2ccco2)C(C(=O)NC2CCCC2)c2ccco2)c1C (stereo not drawn),inactive,–
Cc1nn(CC(O)COc2ccc3c(c2)CCC3)c(C)c1Br (stereo not drawn),inactive,–
COc1ccc(C(=O)COC(=O)c2nn(C)cc2Cl)cc1,"inconclusive: 3.55 µM [inhibitor, full curve]",–
CCC(=O)Nc1nc2nc(C)cc(=O)n2[nH]1,"inconclusive: 0.1 µM [inhibitor, single point]",–
COCCN(C(=S)Nc1ccccc1OC)C(C)c1cccs1 (stereo not drawn),"inconclusive: 35.5 µM [inhibitor, single point]",–
COC(=O)c1ccc(CON2C(=O)c3ccccc3C2=O)cc1,"inconclusive: 35.5 µM [activator, single point]",–
O=C(Nc1cccc(C(F)(F)F)c1)c1cccnc1NCCc1ccccc1,"inconclusive: 35.5 µM [inhibitor, single point]",–
COc1ccccc1-c1noc(CCCC(=O)Nc2ccc(C(N)=O)cc2)n1,"inconclusive: 35.5 µM [inhibitor, single point]",–
CCCNC(=O)CCc1cc(C(C)(C)C)c(O)c(C(C)(C)C)c1,inactive,–
COc1ccc(C(=O)N2C(=S)NC(=O)/C2=C\c2ccc(C)cc2)cc1,"inconclusive: 31.6 µM [inhibitor, single point]",–
COC(=O)c1ccc(N=NNc2ccc(C(=O)OC)cc2)cc1,"inconclusive: 0.158 µM [inhibitor, full curve, poor fit]",–
COc1ccccc1N1CCN(Cc2cc(Br)c(O)c3ncccc23)CC1,active: 1.41 µM,–
COc1ccccc1N1CCN(S(=O)(=O)c2cn(C)nc2C)CC1,inactive,–
Oc1ccc2ccccc2c1C=NCc1cn2ccsc2n1,active: 12.6 µM,–
Cc1cc(Br)cc2c(C(=O)NCC3CCCO3)cc(-c3cccs3)nc12 (stereo not drawn),"inconclusive: 10 µM [inhibitor, partial curve, poor fit]",–
CCOC(=O)c1sc(NC(=O)CCN2CCCCCC2)c(C(=O)OCC)c1C,"inconclusive: 35.5 µM [inhibitor, single point]",–
O=C(CSc1nnc(SCc2ccccc2)s1)N/N=C/c1ccc(C(=O)O)cc1,inactive,–
COc1ccccc1CNc1ncncc1-c1ccccc1OC,active: 15.8 µM,–
CCN(CC)CCCC(C)n1c(-c2ccccc2)nc2c(N3CCOCC3)nc(C)nc21 (stereo not drawn),inactive,–
O=S(=O)(Nc1nccs1)c1cnc(Cl)c(Br)c1,"inconclusive: 35.5 µM [inhibitor, single point]",–
CCCc1[nH]nc2c1C(c1ccc(OC)c(CSC3=NCCS3)c1)C(C#N)=C(N)O2 (stereo not drawn),"inconclusive: 35.5 µM [inhibitor, single point]",–

SMILES,Potency,"activity, negative = inhibition"
CCOc1ccccc1NC(=O)CN(Cc1ccccc1)S(C)(=O)=O,inactive,–
C=CCN(CC=C)S(=O)(=O)c1ccc(C(=O)Nc2nnc(CSC)o2)cc1,active: 2.82 µM,–
COc1cccc(Nc2c(Nc3cccc(OC)c3)c(=O)c2=O)c1,inactive,–
C=CCNC(=O)c1ccccc1NC(=O)C1CC(=O)N(C(C)C)C1 (stereo not drawn),inactive,–
COc1ccc(C2=NCCc3cc(OC)c(OC)cc32)cc1,"inconclusive: 5.62 µM [activator, single point]",–
C(=N/N1CCN(c2ccccc2)CC1)/c1ccncc1,"inconclusive: 35.5 µM [inhibitor, single point]",–
CCS(=O)(=O)N1Cc2ccccc2CC1C(=O)NCCc1c[nH]c2ccccc12 (stereo not drawn),inactive,–
COc1ccc(/C=C2\NC(=S)N(CC3CCCO3)C2=O)c(OC)c1 (stereo not drawn),"inconclusive: 35.5 µM [inhibitor, single point]",–
CNc1ncnc2ccc(-c3ccc4c(c3)OCO4)cc12,inactive,–
C=CCc1ccccc1OCC(=O)N/N=C/c1ccc(OC(C)=O)cc1OC(C)=O,"inconclusive: 17.8 µM [inhibitor, single point]",–
Cc1nn(CCCC(=O)NCc2ccc(F)cc2)c(C)c1[N+](=O)[O-],"inconclusive: 1.58 µM [inhibitor, single point]",–
CC(C)(C)n1nnnc1C(c1cccnc1)N(Cc1ccccc1)Cc1cccs1 (stereo not drawn),"inconclusive: 35.5 µM [inhibitor, single point]",–
COc1ccc(NC2=C(Cl)C(=O)N(CCc3ccccc3)C2=O)cc1,"inconclusive: 1 µM [activator, full curve]",–
Cc1ccc(SCC(CC(C)C)N2CCN(CCc3ccccc3)CCC2=O)cc1 (stereo not drawn),"inconclusive: 35.5 µM [inhibitor, single point]",–
CCOc1ccc2nc(NC(=S)N(C)C)sc2c1,active: 1.78 µM,–
COc1ccccc1N1CCN(C(=O)c2ccc3c(=O)n(Cc4ccco4)c(=S)[nH]c3c2)CC1,"inconclusive: 35.5 µM [inhibitor, single point]",–
CCN1C(=S)N[C@@H](c2ccccc2)C(C(=O)OC)=C1C,"inconclusive: 25.1 µM [inhibitor, single point] and inconclusive: 35.5 µM [inhibitor, single point]",–
COc1cccc(/C(O)=C2/C(=O)C(=O)N(c3cc(C)on3)C2c2cccs2)c1 (stereo not drawn),inactive,–
Cc1cccc(NC(=O)CN2NS(=O)(=O)c3ccccc3C2=O)c1,inactive,–
Cc1cccc(NC(=O)c2nc[nH]c2C(=O)N[C@@H](C)C(=O)OC(C)(C)C)c1,active: 7.08 µM,–
O=C(Nc1nc2ccccc2[nH]1)c1ccc(Cl)c([N+](=O)[O-])c1,"inconclusive: 6.31 µM [inhibitor, single point]",–
COc1ccc(-c2nc3ccccc3c(C(=O)Nc3ccc(S(=O)(=O)Nc4cc(C)on4)cc3)c2C)cc1,inactive,–
CCNC(=O)Oc1ccc[nH]c1=O,"inconclusive: 0.794 µM [inhibitor, single point]",–
